Experimental data as given in ChEMBL document CHEMBL4888484, “Replenishing the malaria drug discovery pipeline: Screening and hit evaluation of the MMV Hit Generation Library 1 (HGL1) against asexual blood stage Plasmodium falciparum ,using a nano luciferase reporter read-out” (2022).
About 540 (0.36%) of roughly 150,000 compounds showed an effect of 50% or more. Some of the results follow.

System: Plasmodium falciparum
Assay: Primary screen in NF54 nanoGlo assay, in single point, at 2uM, 72h; a lower Z score goes with more inhibition
Type: functional, Erythrocyte
Settings: timepoint 72 hour

Compound | % Inhibition [%] | Z score
CN1CC[C@@]2(CCC1=O)CN(c1nc3ccc(Cl)cc3s1)CCN2C | -10 | 1.59
CC(C)n1ccc(NC(=O)N[C@H]2CCS(=O)(=O)C2)n1 | -8 | 1.17
Cc1noc(CNC(=O)Cn2c(C)cc(O)cc2=O)n1 | -1 | 0.1
Cc1nc(C(C)NC(=O)NCC2CCOC2C(C)C)cs1 (stereo not given) | 4 | -0.45
Cn1c(C(=O)N(c2ccccc2)C2CCCCC2)cccc1=O | 9 | -0.9
Cc1nn(C)cc1[C@H](C)NS(=O)(=O)c1cccc2nsnc12 | -11 | 1.05
Cc1onc(-c2ccccc2)c1C(=O)N1CCCCCC1 | -8 | 1.63
Cc1ccc(C(=O)N2CCc3ccccc3[C@@H]2c2ccc(F)cc2)cc1 | -13 | 1.87
Clc1ccc(N2CCOC3(CCOCC3)C2)nc1 | -6 | 0.59
Cc1ccc(Oc2nccn(C)c2=O)cn1 | -8 | 0.96
Cc1nn(CCO)c(C)c1CN(C)CCn1ccnc1C | -4 | 0.69
O=S(=O)(c1ccc2cc(O)ccc2c1)N1CCOCC1 | -1 | 0.13
Cc1ccc(Cl)cc1NC(=O)[C@H]1CCCN(c2nc3ccccc3[nH]c2=O)C1 | -3 | 0.52
CNC(=O)CCNC(=O)NCCC1CC2CCC1C2 (stereo not given) | -26 | 3
CCOC(=O)N1CCN(C(=O)c2cc3c(-c4ccccc4F)nn(C)c3s2)CC1 | -16 | 2.11
CCCN1CCN(CC(=O)c2ccc3cc[nH]c3c2)CC1 | -19 | 2.48
Cn1ccc(NC(=O)C(=O)Nc2cc(F)c(F)c(F)c2)n1 | 2 | -0.28
O=S(=O)(CCC1CC1)N1CCC[C@H]1c1nc(-c2ccccc2)c[nH]1 | -6 | 0.61
CCc1nc([C@H](C)NCc2nnc(C)n2C2CC2)cs1 | -10 | 1.09
COc1ccc(CCc2nc(-c3nnn(Cc4ccccc4)c3C)no2)cc1 | -18 | 3.53
O=C(c1ccc2c(c1)OCO2)N1CCC(=C2CC2)CC1 | -6 | 0.75
CCOc1ccc2nc(-c3nccn3[C@@H](C)Cn3cncn3)ccc2c1 | -21 | 2.69

Compound | % Inhibition [%] | Z score
Cc1ccsc1[C@@H]1CCCCCN1S(=O)(=O)c1ccc(Cl)cc1 | 1 | -0.07
Cc1[nH]ncc1S(=O)(=O)Nc1cccc2cccnc12 | -3 | 0.27
Cc1ccc(OC[C@H]2c3ccsc3CCN2C(=O)CN(CC2CC2)C(=O)c2ccccc2)cc1 | -2 | 0.3
O=C(N[C@H]1CCNC1)c1csc(-c2ccc(Cl)cc2Cl)n1 | 7 | -1.28
Cc1noc(C)c1CC(=O)N1CCOCC1 | -10 | 1.22
CCOc1ccc(NC(=O)c2cnn3c2NC(C)=C(C(=O)Nc2ccc(Cl)cc2)[C@@H]3c2ccccc2F)cc1 | 27 | -3.8
Cc1cc(NC(=O)[C@H](C)S(=O)(=O)CC2CCCCC2)on1 | -3 | 0.39
C=C(C)CN(CC)C(=O)Cc1csc(C(C)C)n1 | -12 | 1.06
O=C1NC(c2ccccc2)=C(c2nc3ccccc3s2)[C@H](c2ccc(C(F)(F)F)cc2)N1 | -10 | 1.87
O=C(Nc1ccccc1-c1nc2ccccc2s1)c1ccc(S(=O)(=O)N2CCCCCC2)cc1 | -12 | 2.33
CN(CC(=O)NCc1ccco1)Cc1cc(Cl)c2c(c1)OCCO2 | 13 | -1.6
C[C@@H](CS(C)(=O)=O)N(C)C(=O)COc1ccc(Cl)cc1 | 3 | -0.38
O=c1c(-c2ccccc2)cncn1Cc1nccs1 | 3 | -0.5
O=C(Nc1ccc(N2CCCS2(=O)=O)cc1)Nc1cccc(F)c1 | 1 | -0.1
CCc1csc(CCNc2ncc(F)c(OC)n2)n1 | 18 | -2.97
O=C1CC[C@@H](CN(Cc2ccccn2)C(=O)c2cn(C3CCCCC3)nn2)N1 | -1 | 0.19
CC(C)C[C@@H](N)C(=O)N(C)Cc1nc(C(C)C)no1 | -9 | 1.59
Cc1ccc(C2=NC3(CCCCC3)N(C(=O)c3cccc(F)c3)C2=O)cc1 | -12 | 1.22
Cc1cnn(Cc2cc(C(=O)N3C[C@H]4CN(Cc5ccccc5)C[C@@]4(CN(C)C)C3)no2)c1 | -6 | 0.8
CCn1ccnc1CN(C)Cc1sccc1C | -16 | 2.01
CC1C(O)CC2CCC1N2C(C(=O)O)c1cccc(Cl)c1Cl (stereo not given) | -10 | 1.56
COc1ccccc1CNC(=O)[C@]1(C)Cn2nc(-c3ccccc3)cc2C(=O)N1c1ccc(C)cc1C | -1 | 0.08

Compound | % Inhibition [%] | Z score
CCn1cc(S(=O)(=O)N2CCOC[C@@H]2CC(=O)Nc2ccccc2)cn1 | 8 | -1.44
O=C(CCNC(=O)c1ccncc1)NC1(c2ccccc2)CCCC1 | -8 | 0.79
CCOc1ccc(NC(=O)c2ccc(S(=O)(=O)c3ccc(Cl)cc3)s2)cc1 | -15 | 1.4
Cc1c2c(=O)n(-c3nc4ccccc4s3)n(Cc3ccccc3)c2cc(=O)n1Cc1ccc2c(c1)OCO2 | 42 | -2.03
Cc1ccoc1C(=O)NCC1CCN(C2CC2)CC1 | -14 | 1.61
COCCc1nc(Cc2c[nH]c3ccccc23)n(C(C)(C)C)n1 | -13 | 1.99
COCC1(CNS(=O)(=O)c2cc(-c3cc(C(F)(F)F)on3)oc2C)CCC1 | -12 | 1.47
Cc1cccc(C(=O)NCC2CCOCC2)c1 | 2 | -0.41
NC(=O)c1ccccc1OCc1csc(-c2ccco2)n1 | 31 | -3.53
CC(C)=CCO[C@H]1COCC[C@@H]1NC(=O)c1cc(C)nc(N)n1 | -8 | 1.24
Cn1nc(-c2nc(-c3ccc(F)cc3)no2)c2c1CCN(C(=O)c1cccc(Cl)c1)C2 | 66 | -7.55
OCc1cc(-c2ccc(-c3ccn[nH]3)cc2)ccn1 | -14 | 2.41
COCCNS(=O)(=O)c1ccc(-c2ccc(OC)cc2S(=O)(=O)NCCOC)cc1 | -5 | 0.71
CN(c1nc2c(c(N3CCOCC3)n1)CN(C(=O)c1ccc(Cl)cc1)CC2)C1CCCCC1 | -8 | 1.41
CCc1ccc(Cn2nc(CCOC)nc2[C@H](C)N2CCOCC2)cc1 | -1 | 0.1
Cc1nscc1C(=O)Nc1nnc(-c2ccoc2)[nH]1 | -9 | 0.89
O=c1cnc2ccccc2n1C[C@H]1CCCCO1 | 1 | -0.11
c1cc(-c2ccc3oc(-c4cccnc4)nc3c2)cc(-c2cc[nH]n2)c1 | -11 | 1.97
CCCCN1C(=O)c2ccc(C(=O)Nc3ccc(Oc4ccccc4C#N)nc3)cc2C1=O | 0 | 0.01
CC(C)c1nc(CCN(C)C(=O)c2cnc(O)cn2)no1 | 10 | -1.29
CCn1cc(-c2ccccc2)cc1C(=O)NCCCN1CCCC1 | 12 | -1.95
CN(C)C(=O)N1Cc2ccccc2C[C@H]1c1ccccc1 | -3 | 0.38

Compound | % Inhibition [%] | Z score
Cn1cc(C(=O)NCC(O)c2ccccc2F)c(C2CCCN(C(=O)OC(C)(C)C)C2)n1 (stereo not given) | 1 | -0.09
Cc1nc(CCNc2nc(-c3ccncc3)nc3c2CCNC3)sc1C | 2 | -0.16
O=C(Nc1ccc(-n2ncc3ccccc32)cc1)N1CCOCC1C1CCCO1 (stereo not given) | 8 | -0.92
C[C@H](NC(=O)c1cn(C(c2ccccc2)c2ccccc2)nn1)c1ccccc1 | -2 | 0.25
CCc1ccc(S(=O)(=O)Nc2cccn3nc(C)nc23)cc1 | -9 | 1.03
CN(Cc1ccccn1)C(=O)[C@@H]1CCC[C@@H]1CNC(=O)OC(C)(C)C | -6 | 1.16
O=C1C[C@H](Nc2ccncc2Cl)CN1C1CC1 | 5 | -0.72
CC1(C)COc2c(S(=O)(=O)N3CCn4nccc43)cnn2C1 | -3 | 0.47
CCn1nccc1[C@H]1Nc2ccccc2C(=O)N1c1ccc(OC)nc1 | -13 | 1.11
COc1cccc(C(=O)N2CCC3(CC2)N(C)C(=O)CS3(=O)=O)c1C | -8 | 1.13
COc1ccc(-c2noc([C@H](C)O)c2C(=O)N2CCC(Cc3ccccc3)CC2)cc1OC | -7 | 1.16
O=C(c1cc(-c2ccc(F)cc2Cl)c[nH]1)N1CCCCC1 | -19 | 2.09
COc1ccc(CNCc2ccccc2CN2CC(C)CC(C)C2)c(OC)c1OC (stereo not given) | -3 | 0.41
CCC=C(C)C(=O)Nc1cccc(Cn2ccnc2)c1 | 7 | -1.04
COc1ccccc1Cn1ncc2[nH]c(-c3ccc4c(c3)OCCO4)nc21 | -8 | 1.4
CCN(Cc1nc(C(C)C)no1)C(=O)c1cnc[nH]1 | -4 | 0.83
CN1C(=O)NC(C)(C2CCCN(CCc3ccccc3Cl)C2)C1=O (stereo not given) | 3 | -0.4
COCCC1(NS(C)(=O)=O)CCN(C(=O)c2cnccc2C)CC1 | 17 | -2.09
Cn1cc(-c2ncccc2CNC(=O)N2CCN(S(C)(=O)=O)C2=O)cn1 | -9 | 1.44
